# Results as given in the supplement of paper PMC10126150.
# Values marked as one replicate rest on one cluster of the flow cell; about a third of the high ones do not repeat.
# System: ATP
# Assay: switch fluorescence ratio, 500 uM ATP over buffer (Cy3 cluster intensity, sum of 5 cycles each) (fold (ratio)); higher = stronger signal-on switching upon ATP binding; sequences stand for … in TCGTCGGCAGCGTCAGATGTGTATAAGAGACAGTTTTTTTTTTTTTTTTTTTTTTTTT…TC
# Conditions: aptamer strand: ATP DNA aptamer (quencher-CACCTGGGGGAGTATTGCGGAGGAAGG + anchor), 100 nM annealed; ATP concentration: 500 uM; one replicate
# Method in brief: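 Five buffer/ATP imaging cycles were run on Cy3-labelled switching-strand clusters on a modified Illumina MiSeq flow-cell, with NaOH stripping and re-annealing between cycles. In each cycle, clusters annealed to 100 nM quencher-labelled ATP aptamer were imaged in selection buffer, then after 15 min with 500 uM ATP at 22 °C. Per cluster, the fluorescence ratio is summed target-cycle over summed buffer-cycle Cy3 intensity, averaged per switch-domain sequence. Only clusters within 100-1000 RFU were kept.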
# 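Also: ATP exposure 15 min at 22 °C before imaging.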
row,Sequence,switch fluorescence ratio
1,GTGGCCGGGA,0.985
2,CAACTACAAA,0.956
3,CCATCGGGGG,1
4,TTGACCCGCC,0.958
5,CGAACACCTT,1.13
6,TCGTTGCACT,0.996
7,GGAGTAAGCT,1.04
8,TGGGGAATGC,1.27
9,TAACGATTCC,1.2
10,TCTAACTCGA,1.03
11,GGTTTAGTCC,1.02
12,GGCAAATATT,0.986
13,GTATTAACGA,1.05
14,TTGGAAAACT,1.19
15,TCCCATTATG,0.998
16,GTAACGCCTC,0.999
17,TCCATTGGC,1.03
18,AGGGGGTCAT,0.983
19,CAGATCGAAA,1.06
20,TTTGTCTTGC,1.14
21,GGGCGGTACG,1.05
22,TGTTTCAGTT,0.973
23,GGCGTGAGTT,0.979

row,Sequence,switch fluorescence ratio
1,CTTGGAGAAT,0.967
2,ACTTCCTAGT,1.09
3,TCGAGTAGGT,0.969
4,TAAAATAATT,1.04
5,GAGGCCTGG,0.95
6,GAAGAGGGAA,0.975
7,GCGTCTCCAT,1
8,GGAATCGGGA,0.981
9,CCCTTGAGAA,1.01
10,TAAGCCGGG,1.01
11,TTCGTAACTT,0.986
12,CGTCGTTGGG,1.1
13,TAGGGATCTA,1
14,ACATCCCGGG,0.977
15,CGTCTTCCCA,1.01
16,GAAATGTTTG,1.05
17,ACTGTCATAA,1.09
18,TGAGGCTGAC,0.965
19,GAGACAATGT,1.02
20,TGCCGGCGGA,0.951
21,ACTGGGTTTA,0.976
22,ACCCTTGCTT,0.999
23,CTATTGTTTA,1.01

row,Sequence,switch fluorescence ratio
1,CCGGGCTTCC,2.05
2,CGGTTGTATC,0.935
3,AGGCTTGTTG,0.986
4,AAAAATCCAA,1.02
5,AATGATTTC,0.992
6,AATCAGCAGT,1.22
7,TCATAAGTCA,1
8,TCGACTAAAT,1.12
9,TACGATTAAT,1.07
10,TTCGTCCGTG,1.15
11,TTTATTGTG,0.943
12,CGGGGATAGT,1.06
13,CAAGGTTCAC,0.979
14,ATACTGAGTC,1.05
15,TCGATTAAA,0.995
16,AAATTCTCTG,1.03
17,CTATACCAGC,1.07
18,GTTAGAGTTA,0.943
19,CGAGTATTCG,0.963
20,TTCGTCTGTT,1.02
21,GATGCGAAGG,0.999
22,GCTTCGAGAG,1.01
23,ATCCCTACAA,1.03

row,Sequence,switch fluorescence ratio
1,AGGAGGGTA,1.01
2,ATAAGAACGG,1.12
3,CGCCTAGGGG,1.55
4,CAAACTGGTT,0.996
5,TCCTGCTTTA,0.985
6,TTTAGGCGCG,1.03
7,CATCTATATG,1.01
8,AGTTATGAAC,1.04
9,GAGGGTAACT,0.959
10,TAGCAACCTG,1.02
11,ACTGTCCAGC,1.02
12,GCGGTGGGAG,0.987
13,CGAGCCAAGA,1.07
14,TTTGCTCGTT,1.02
15,TGGACCGTAT,1.05
16,CCCTTCTCAG,1.13
17,TCGGGACAAG,1.02
18,AGCACTATCT,1.07
19,AGGAGCTGTG,0.984
20,TGGAAACAAG,1.11
21,CACAAAAGGC,0.992
22,CCAGCGGACC,1.14
23,AGAGAACTTT,1.02

row,Sequence,switch fluorescence ratio
1,GGCATTGGTC,1.02
2,ATGGACACT,1
3,TATGGGGCCA,0.961
4,GATCAGAATG,0.986
5,TCCACTCCGT,1.14
6,GCTTAAGTGC,0.986
7,AGTCACTGGT,0.988
8,AACTCTGCGC,1.46
9,AGCGGTATC,1.08
10,CCGATGTTAT,2.67
11,CAATCTTGGT,1.08
12,AGGTGACAA,0.997
13,GCTTGACCCA,1.03
14,AAGATGTCGA,1.03
15,GGTCATAAAA,1.02
16,TGGAATAACG,1.07
17,GCTAGCGGCC,0.99
18,CCTATTCCC,1.03
19,TCATACGGGC,1.09
20,GACCAGTGGG,1.04
21,GATTGATCTC,0.972
22,GCTATTGTGG,0.972
23,GAGATTGATA,1.17

row,Sequence,switch fluorescence ratio
1,AGTCCTCTGT,0.99
2,ATCTATTATA,1.02
3,AGAATGGACT,0.996
4,GGGGTGGCG,0.942
5,ACGTTTTCGC,1.02
6,TATTTCGTTC,0.983
7,CGCCTTTATG,0.958
8,GAAGAGGGT,0.974
9,TGCGTGCTCA,1
10,AGTACTACTG,1.07
11,TTTGAGCACG,0.992
12,GCTCCTCGGC,1.19
13,TGAAGCACCT,1.36
14,GAACGTATAA,1.26
15,GTGTTGCGGG,0.986
16,TAAAAGTCTG,1.04
17,TAGCATCAAG,0.951
18,ACGAGCACCA,1.35
19,TGTTCCCCAT,1.02
20,CGGAGATCTT,1.01
21,ACCAGCGTTT,1
22,TGTCCTAAT,0.973
23,ATTAATTTAC,1.06

row,Sequence,switch fluorescence ratio
1,GGTTACGCCC,1.05
2,ATCTTCCCGC,2.24
3,CATCTGCGCT,1.38
4,AATAGGCACG,1.07
5,GAGAGTCGTT,0.988
6,CCCCAGTGCG,3.61
7,GTGAGAGGAC,1.04
8,CAATGTGACA,0.985
9,TAGCTGAGGC,1.01
10,AGGCTCTACA,0.99
11,CTAATTCCTA,1.01
12,CCTAGCCGGC,1.11
13,TATAGTGGAA,0.997
14,GCTAGTCGGT,0.98
15,AGAAAGATAT,0.979
16,CACGAAAAGA,1.2
17,CCATACACGC,1.19
18,CTTAGAACGT,1
19,TTTAAACGAA,0.975
